Test results as given in the supplement of paper PMC4604168 (melanoma cell lines).
The other results are listed elsewhere or left out. Repeats are few or missing, and single values can be far off.

Tests used:
Test in all cases: cell count relative to DMSO control; melanoma cells; higher = more viable cells
Conditions in all cases: library dose: standard library concentration; 72 h
[1] = system: A101D
[2] = system: A2058
[3] = system: A375
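Note: cells treated in 1,536-well plates, then fixed and DAPI-stained, with nuclei counted from automated high-throughput microscope images.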

Row | Structure (SMILES) | cell count [1] [%] | cell count [2] [%] | cell count [3] [%]
1 | COc1ccc(C2=N[C@@H](c3ccc(Cl)cc3)[C@@H](c3ccc(Cl)cc3)N2C(=O)N2CCNC(=O)C2)c(OC(C)C)c1 [Nutlin-3] + Clc1ccc(Nc2nnc(Cc3ccncc3)c3ccccc23)cc1 [vatalanib] (first compound 0.5 µM, partner dose 10 µM) | 64.4 | 79.4 | 88.9
2 | Cc1cc(Nc2cc(N3CCN(C)CC3)nc(/C=C/c3ccccc3)n2)n[nH]1 + Cc1ccc(NC(=O)c2cccc(N(C)C)c2)cc1NC(=O)c1ccc(O)cc1 [ZM336372] (first compound 0.2 µM, partner dose 10 µM) | 61.8 | 83.8 | 97.7
3 | Cc1cc(Nc2cc(N3CCN(C)CC3)nc(/C=C/c3ccccc3)n2)n[nH]1 + O=C(O)c1ccc2c(c1)nc(Nc1cccc(Cl)c1)c1ccncc12 [CX4945] (first compound 0.2 µM, partner dose 2 µM) | 69.7 | 76.8 | 82.8
4 | Cn1c(=O)n(-c2ccc(C(C)(C)C#N)cc2)c2c3cc(-c4cnc5ccccc5c4)ccc3ncc21 + C=C(c1ccc(C(=O)O)cc1)c1cc2c(cc1C)C(C)(C)CCC2(C)C [Bexarotene] (first compound 0.02 µM, partner dose 10 µM) | 69.5 | 81.7 | 85.1
5 | CC(C)C[C@H](NC(=O)[C@H](Cc1ccccc1)NC(=O)c1cnccn1)B(O)O [Bortezomib] + O=C(Nc1cccc(Cl)c1)Nc1ncc(CCNc2ncnc3ccsc23)s1 [SNS314] (first compound 0.005 µM, partner dose 0.004 µM) | 20 | 10.7 | 86.1
6 | Cc1cn(-c2cc(NC(=O)c3ccc(C)c(Nc4nccc(-c5cccnc5)n4)c3)cc(C(F)(F)F)c2)cn1 [nilotinib] + CO[C@H]1C[C@@H]2CC[C@@H](C)[C@@](O)(O2)C(=O)C(=O)N2CCCC[C@H]2C(=O)O[C@H]([C@H](C)C[C@@H]2CC[C@@H](OCCO)[C@H](OC)C2)CC(=O)[C@H](C)/C=C(\C)[C@@H](O)[C@@H](OC)C(=O)[C@H](C)C[C@H](C)/C=C/C=C/C=C/1C [everolimus] (first compound 1 µM, partner dose 0.1 µM) | 64.1 | 57.5 | 101
7 | COc1ccc(C2=N[C@@H](c3ccc(Cl)cc3)[C@@H](c3ccc(Cl)cc3)N2C(=O)N2CCNC(=O)C2)c(OC(C)C)c1 [Nutlin-3] + Nc1ncn([C@H]2C[C@H](O)[C@@H](CO)O2)c(=O)n1 [decitabine] (first compound 0.5 µM, partner dose 0.5 µM) | 77.2 | 77.1 | 70.8
8 | COc1ccc(C2=N[C@@H](c3ccc(Cl)cc3)[C@@H](c3ccc(Cl)cc3)N2C(=O)N2CCNC(=O)C2)c(OC(C)C)c1 [Nutlin-3] + CCCCCCCCCCCC1=C(O)C(=O)C=C(O)C1=O [Embelin] (first compound 0.5 µM, partner dose 6 µM) | 53.6 | 96.6 | 97
9 | COc1ccc(C2=N[C@@H](c3ccc(Cl)cc3)[C@@H](c3ccc(Cl)cc3)N2C(=O)N2CCNC(=O)C2)c(OC(C)C)c1 [Nutlin-3] + C=CCn1c(=O)c2cnc(Nc3ccc(N4CCN(C)CC4)cc3)nc2n1-c1cccc(C(C)(C)O)n1 [MK1775] (first compound 0.5 µM, partner dose 0.1 µM) | 59.8 | 75.4 | 70
10 | Cc1cn(-c2cc(NC(=O)c3ccc(C)c(Nc4nccc(-c5cccnc5)n4)c3)cc(C(F)(F)F)c2)cn1 [nilotinib] + CN(c1ncccc1CNc1nc(Nc2ccc3c(c2)CC(=O)N3)ncc1C(F)(F)F)S(C)(=O)=O [PF562271] (first compound 1 µM, partner dose 0.4 µM) | 98.8 | 74.4 | 88.9
11 | Cn1c(=O)n(-c2ccc(C(C)(C)C#N)cc2)c2c3cc(-c4cnc5ccccc5c4)ccc3ncc21 + CN(NC(=O)CC(=O)NN(C)C(=S)c1ccccc1)C(=S)c1ccccc1 [STA4783] (first compound 0.02 µM, partner dose 0.03 µM) | 48.9 | 10.8 | 81.8
12 | Cn1c(=O)n(-c2ccc(C(C)(C)C#N)cc2)c2c3cc(-c4cnc5ccccc5c4)ccc3ncc21 + NCC(=O)Nc1ccc(-n2nc(C(F)(F)F)cc2-c2ccc3c(ccc4ccccc43)c2)cc1 [OSU03012] (first compound 0.02 µM, partner dose 5 µM) | 63.7 | 56.1 | 39.1
